Reference: PubChem BioAssay AID504332 (National Center for Advancing Translational Sciences (NCATS), 2011)
Screen size: about 350,000 compounds; about 31,000 (8.9%) were called active. Inconclusive results, whose numbers are uncertain, are shown with a selection of clear calls. Calls come from the whole dose curve; as a rule, active = well fitted inhibition curve with a large enough effect; inconclusive = small, poorly fitted or top-dose-only effect; inactive = no such curve, though single readings can be large or run the other way. Potencies of inconclusive entries are doubtful fits and often do not repeat. Where a SMILES comes first, the peptide text is derived from it. The star is where a group is joined. Bz = O=C(c1ccccc1)*

Target: Histone-lysine N-methyltransferase EHMT2 (Homo sapiens) (UniProt Q96KQ7)
Chain of UniProt Q96KQ7 (Q96KQ7 whole entry, looked up): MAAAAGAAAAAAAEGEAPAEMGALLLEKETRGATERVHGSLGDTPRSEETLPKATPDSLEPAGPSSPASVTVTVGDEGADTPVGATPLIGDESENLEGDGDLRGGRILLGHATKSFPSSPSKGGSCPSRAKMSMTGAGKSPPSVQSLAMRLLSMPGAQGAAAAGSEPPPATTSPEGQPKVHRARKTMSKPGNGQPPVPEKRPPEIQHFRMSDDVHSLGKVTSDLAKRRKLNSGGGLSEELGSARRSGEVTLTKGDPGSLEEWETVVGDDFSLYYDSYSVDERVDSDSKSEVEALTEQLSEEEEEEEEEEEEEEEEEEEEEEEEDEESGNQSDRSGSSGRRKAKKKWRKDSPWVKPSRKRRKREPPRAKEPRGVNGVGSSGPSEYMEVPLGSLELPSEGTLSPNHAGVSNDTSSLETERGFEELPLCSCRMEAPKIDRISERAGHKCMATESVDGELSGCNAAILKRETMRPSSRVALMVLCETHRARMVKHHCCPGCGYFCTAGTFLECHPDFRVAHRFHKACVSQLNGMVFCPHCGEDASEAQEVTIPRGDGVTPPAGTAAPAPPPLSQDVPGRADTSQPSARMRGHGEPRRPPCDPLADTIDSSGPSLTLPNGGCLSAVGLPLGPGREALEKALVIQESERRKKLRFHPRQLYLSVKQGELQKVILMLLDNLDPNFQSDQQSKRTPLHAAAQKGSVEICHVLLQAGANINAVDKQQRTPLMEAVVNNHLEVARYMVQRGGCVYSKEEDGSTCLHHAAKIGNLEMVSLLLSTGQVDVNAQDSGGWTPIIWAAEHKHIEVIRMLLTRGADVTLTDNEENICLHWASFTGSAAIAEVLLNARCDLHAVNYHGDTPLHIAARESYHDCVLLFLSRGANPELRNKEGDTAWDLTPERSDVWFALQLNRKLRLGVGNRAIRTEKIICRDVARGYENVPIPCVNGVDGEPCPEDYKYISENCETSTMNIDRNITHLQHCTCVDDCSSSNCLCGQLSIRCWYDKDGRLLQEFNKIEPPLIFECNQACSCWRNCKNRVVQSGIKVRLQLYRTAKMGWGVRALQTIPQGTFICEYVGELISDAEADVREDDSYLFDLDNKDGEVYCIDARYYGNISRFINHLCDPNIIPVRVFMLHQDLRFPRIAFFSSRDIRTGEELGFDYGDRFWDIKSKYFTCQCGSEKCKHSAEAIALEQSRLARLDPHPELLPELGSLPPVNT
Assay: qHTS Assay for Inhibitors of Histone Lysine Methyltransferase G9a; note: nearly all actives have a fitted effect of over 75% in size
Settings: G9a H3K9 monomethylation, AlphaScreen, 2 h; activity, negative = inhibition: at 59 µM (top of the series) unless noted
Method in brief: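 G9a (20 nM) preincubated 15 min RT with compounds, then 500 nM biotinylated H3K9 peptide and 20 uM SAM added; 2 h RT reaction. Monomethyl-H3K9 product detected by AlphaScreen with anti-H3K9me1 antibody, streptavidin donor and anti-rabbit IgG acceptor beads.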
% is set by controls: 0 for no effect and ±100 for the full control effect; potency is the fitted concentration of half-maximal effect; tags give direction and shape of the fitted curve.

How did the Potency turn out when `C=CCN(C(=O)c1cccc(N2C(=O)C3CC=CC(C)C3C2=O)c1)c1ccccc1` (stereo not drawn) was run?
The Potency was inconclusive: 89.1 µM [inhibitor, partial curve, poor fit].

How did the Potency turn out when `O=C(NC(Cc1ccccc1)C(=O)NC(Cc1ccccc1)C(=O)O)c1ccccc1` (stereo not drawn) (Bz-Phe-Phe-OH; configuration not given here) was run?
Its Potency is active: 28.2 µM.

For `COc1ccccc1CN1CC(C(=O)NCCc2ccc(C)o2)CCC1=O` (stereo not drawn), which Potency is on record?
Its Potency is inconclusive: 79.4 µM [inhibitor, single point].

For `COC(=O)c1ccc2c(=O)n(CCCCCC(=O)O)c(=O)[nH]c2c1`, which Potency is on record?
Its Potency is inconclusive: 89.1 µM [inhibitor, partial curve, poor fit].

How did the Potency turn out when `O=C(c1ccco1)c1nnn(Cc2ccccc2)c1-c1ccccc1` was run?
The Potency was inconclusive: 39.8 µM [inhibitor, single point].

With `NC(=O)NOCc1ccc(Cl)cc1Cl` as the compound, how does the Potency read?
Its Potency is “inactive”.

How did the Potency turn out when `CN1/C(=C\C(=O)COC(=O)CNC(=O)c2ccccc2F)C(C)(C)c2ccccc21` was run?
Its Potency is “inactive”.

How did the Potency turn out when `CCc1ccc(-c2c(C)sc(NC(C)=O)c2C(N)=O)cc1` was run?
Its Potency is active: 11.2 µM.

For `COc1ccc2[nH]c(=O)c(C(c3nnnn3CC3CCCO3)N3CCc4ccccc4C3)cc2c1` (stereo not drawn), which Potency is on record?
Its Potency is inconclusive: 25.1 µM [inhibitor, single point].

How did the Potency turn out when `Cc1cc(O)c(C(c2cccc(F)c2)N2CCN(c3ccccc3)CC2)c(=O)n1Cc1ccco1` (stereo not drawn) was run?
The Potency was inconclusive: 39.8 µM [inhibitor, partial curve, poor fit].

How did the Potency turn out when `CCN1CCN(CCNC(=O)c2ccc3c(c2)N(Cc2ccc(F)cc2)C(=O)c2ccccc2S3=O)CC1` (stereo not drawn) was run?
Its Potency is inconclusive: 50.1 µM [inhibitor, partial curve, poor fit].

Which Potency does the source give for `N#CC1=C(N)Oc2c(oc(CO)cc2=O)C1c1cccs1` (stereo not drawn) here?
The Potency was active: 44.7 µM.

How did the Potency turn out when `CCn1c(SCC(=O)c2ccc(O)c(O)c2)nnc1-c1ccccc1OC` was run?
The Potency was inconclusive: 25.1 µM [inhibitor, single point].

With `CCc1sc(C(=O)N(CCCOC)c2c(N)n(CC(C)C)c(=O)[nH]c2=O)cc1C` as the compound, how does the Potency read?
Its Potency is active: 0.794 µM.

How did the Potency turn out when `O=[N+]([O-])c1ccc(/C=N/n2c(COc3ccccc3)n[nH]c2=S)cc1` was run?
Its Potency is inconclusive: 2.82 µM [inhibitor, partial curve, poor fit].

For `CCCC(=O)NCCc1nc2cc([N+](=O)[O-])ccc2n1C`, which Potency is on record?
The Potency was inconclusive: 0.282 µM [inhibitor, partial curve, poor fit].

How did the Potency turn out when `CN1CCN(C(=S)c2cn(Cc3ccc(Br)cc3)c3ccccc23)CC1` was run?
Its Potency is active: 35.5 µM.

Which Potency does the source give for `CCOC(=O)C1(c2csc(N)n2)COC(=O)C1` (stereo not drawn) here?
The Potency was inconclusive: 22.4 µM [inhibitor, single point].

With `Cc1ccc(Nc2nc(NCc3ccco3)c3ccccc3n2)cc1` as the compound, how does the Potency read?
Its Potency is inconclusive: 28.2 µM [inhibitor, single point].

For `NNC(=O)CCc1ccc(S(=O)(=O)N2CCOCC2)cc1`, which Potency is on record?
Its Potency is “inactive”.

Which Potency does the source give for `O=C1Nc2ccccc2Oc2cc(Oc3ccccc3)ccc21` here?
The Potency was inconclusive: 31.6 µM [inhibitor, partial curve, poor fit].

How did the Potency turn out when `CCN1CCCC(OC(=O)c2cc(-c3ccc(C)cc3)nc3ccccc23)C1` (stereo not drawn) was run?
The Potency was inconclusive: 89.1 µM [inhibitor, single point].

Which Potency does the source give for `Cc1ccc(N2C(N)=C(C#N)C(c3cccs3)C3=C2CC(C)(C)CC3=O)cc1` (stereo not drawn) here?
The Potency was inconclusive: 89.1 µM [inhibitor, single point].

For `CCCCN1CC(=O)N2[C@H]3c4cc(Br)ccc4OC[C@@H]3[C@H](C(=O)OCC)[C@]2(C)C1=O`, which activity, negative = inhibition is on record?
The activity, negative = inhibition was inactive: -1.29% [at 0.501 µM].

For `CC(=O)Oc1ccccc1C(=O)Oc1ccc(/C=N/n2cnnc2)cc1`, which Potency is on record?
Its Potency is inconclusive: 89.1 µM [inhibitor, single point].

With `O=C(O)C1CCCCC1C(=O)Nc1ccc2c(c1)OCCO2` (stereo not drawn) as the compound, how does the Potency read?
Its Potency is active: 2.51 µM.

With `O=C(c1ccccc1F)N1CCN(C2CCC(c3ccccc3)CC2)CC1` (stereo not drawn) as the compound, how does the Potency read?
The Potency was active: 31.6 µM.

For `C#CCNC(=O)C1=C[C@H](c2cn(C(C)=O)c3ccccc23)C[C@H](OCc2ccc(CO)cc2)O1`, which activity, negative = inhibition is on record?
Its activity, negative = inhibition is inconclusive: -69.8% [inhibitor].

With `CCC(C)c1ccc2oc(-c3ccc(NC(=O)c4cc5ccccc5o4)cc3)nc2c1` (stereo not drawn) as the compound, how does the Potency read?
The Potency was “inactive”.

With `C=CCOc1c(CNc2ccc(C(=O)O)cc2)cccc1OC` as the compound, how does the Potency read?
The Potency was “inactive”.

How did the Potency turn out when `COc1cc2c(C(=O)Nc3cc(OC)c(OC)c(OC)c3)cn(C)c(=O)c2cc1OC` was run?
Its Potency is “inactive”.

`O=C(Cc1ccc(S(=O)(=O)N2CCOCC2)s1)Nc1ccccc1N1CCOCC1` was tested. Which Potency did it give?
The Potency was active: 44.7 µM.

Which Potency does the source give for `COc1cccc(NC(=O)CSc2nn3c(=O)c(C)nnc3s2)c1` here?
Its Potency is “inactive”.

For `CS(=O)(=O)N(Cc1ccccc1Cl)c1ccc(C(=O)NCc2cccnc2)cc1`, which Potency is on record?
The Potency was inconclusive: 44.7 µM [inhibitor, partial curve, poor fit].

`O=C(O)c1cc(O)c2c(c1)[C@H]([C@H]1c3cc(C(=O)O)cc(O)c3C(=O)c3c(O[C@@H]4O[C@H](CO)[C@@H](O)[C@H](O)[C@H]4O)cccc31)c1cccc(OC3O[C@H](CO)[C@@H](O)[C@H](O)[C@H]3O)c1C2=O` (stereo partly drawn) was tested. Which Potency did it give?
The Potency was active: 1.26 µM.

`Cc1ccccc1S(=O)(=O)NCc1cccnc1` was tested. Which Potency did it give?
The Potency was “inactive”.

How did the Potency turn out when `CC1=NN(Cc2ccccc2)C(=O)/C1=C/c1ccc(N(C)C)cc1` was run?
Its Potency is active: 10 µM.

With `Cc1cc2c(NC(=O)Nc3ccccc3)cccc2nn1` as the compound, how does the Potency read?
Its Potency is inconclusive: 22.4 µM [inhibitor, single point].

For `COc1ccccc1/C=C/C(=O)Oc1cccc2cccnc12`, which Potency is on record?
Its Potency is inconclusive: 8.91 µM [inhibitor, full curve, poor fit].

For `COc1ccc(C2NN=C(c3c[nH]c4ccccc34)C2O)cc1` (stereo not drawn), which Potency is on record?
Its Potency is active: 22.4 µM.

Which Potency does the source give for `Cc1ccc(N2CCN(C(=O)N3CCOCC3)CC2)cc1C` here?
Its Potency is inconclusive: 35.5 µM [inhibitor, full curve].

How did the Potency turn out when `CCCC(C)n1[nH]c(=O)c2c(C)cc(C)nc21` (stereo not drawn) was run?
Its Potency is inconclusive: 31.6 µM [inhibitor, single point].

How did the Potency turn out when `COCCn1c(SCc2nc3ccccc3c(=O)[nH]2)nc2ccccc2c1=O` was run?
Its Potency is “inactive”.

`CCOC(=O)C1=C(COC(=O)c2ccc(Br)o2)NC(=O)NC1C` (stereo not drawn) was tested. Which Potency did it give?
Its Potency is “inactive”.

For `O=C(NCCO)c1cccc2c1C(=O)c1ccccc1-2`, which Potency is on record?
The Potency was inconclusive: 89.1 µM [inhibitor, single point].

How did the Potency turn out when `COc1ccc(OC)c2sc(NC(=O)C(C)C)nc12` was run?
Its Potency is “inactive”.

`CCOC(=O)C1CCCN(C(=O)CCC(=O)Nc2ccc3nc(N4CCOCC4)cc(C)c3c2)C1` (stereo not drawn) was tested. Which Potency did it give?
The Potency was inconclusive: 0.158 µM [inhibitor, full curve, poor fit].

How did the Potency turn out when `COc1ccc(CCN2C(=O)NC(NC(C)=O)(C(F)(F)F)C2=O)cc1OC` (stereo not drawn) was run?
The Potency was “inactive”.

`COc1ccc(OCCCc2c(C)n[nH]c2C)cc1` was tested. Which Potency did it give?
Its Potency is inconclusive: 17.8 µM [inhibitor, partial curve, poor fit].

Which Potency does the source give for `O=C(CNC(=O)c1ccco1)OCC(=O)c1ccccc1` here?
The Potency was inconclusive: 0.708 µM [inhibitor, partial curve, poor fit].

Which Potency does the source give for `Cc1cc(C)cc(C(=O)NCC(=O)OCC(=O)Nc2cccnc2Cl)c1` here?
Its Potency is “inactive”.

`COC(=O)CCCC1=CC2=C(c3ccccc3)C(=O)C(C)(OC(=O)C3CCCC3)C(=O)C2=CN1c1ccccc1` (stereo not drawn) was tested. Which Potency did it give?
The Potency was inconclusive: 39.8 µM [inhibitor, single point].

`NC(=O)NC(=O)C(Nc1ccc2c(c1)CCC2)c1ccccc1` (stereo not drawn) was tested. Which Potency did it give?
Its Potency is inconclusive: 89.1 µM [inhibitor, single point].

How did the Potency turn out when `Cc1ccc(C)c(S(=O)(=O)N2CCCC2CNC(=O)C(=O)NCc2ccco2)c1` (stereo not drawn) was run?
Its Potency is “inactive”.

Which Potency does the source give for `Cc1cc(C)c(NC(=O)C2CCN(c3nc4ccccc4n4cccc34)CC2)c(C)c1` here?
Its Potency is inconclusive: 17.8 µM [inhibitor, partial curve, poor fit].

With `OCCC1CCCCN1CC(O)COCc1ccc(Cl)cc1` (stereo not drawn) as the compound, how does the Potency read?
Its Potency is inconclusive: 31.6 µM [inhibitor, single point].

With `COC(=O)c1c(NC(=O)c2ccc(S(=O)(=O)N3CCC(C)CC3)cc2)sc2c1CCN(C)C2` as the compound, how does the Potency read?
Its Potency is inconclusive: 28.2 µM [inhibitor, partial curve, poor fit].

`COc1cc2ccccc2cc1C(=O)Nc1cccc(-c2nc3cc(C)c(C)cc3o2)c1` was tested. Which Potency did it give?
Its Potency is inconclusive: 20 µM [inhibitor, partial curve, poor fit].

`S=C(Nc1ccc(Cl)cc1)N(CCCN1CCOCC1)Cc1cccs1` was tested. Which Potency did it give?
Its Potency is “inactive”.

`Cc1cccc(N(C)C(=O)CCS(=O)(=O)c2cc3c(cc2Cl)NC(=O)CO3)c1` was tested. Which Potency did it give?
The Potency was inconclusive: 89.1 µM [inhibitor, single point].

For `NC1=C([N+](=O)[O-])C(c2ccccc2)C2=C(CCCC2=O)O1` (stereo not drawn), which Potency is on record?
Its Potency is inconclusive: 39.8 µM [inhibitor, partial curve, poor fit].

For `COc1ccc2[nH]c(C)c(CCN(Cc3cccs3)C(=S)Nc3ccccc3)c2c1`, which Potency is on record?
Its Potency is inconclusive: 28.2 µM [inhibitor, single point].

Which activity, negative = inhibition does the source give for `NC(=O)C1(N2CCCCC2)CCN(c2nc(-c3ccccc3)cs2)CC1` here?
The activity, negative = inhibition was inconclusive: -71.8% [inhibitor].

For `CC(=O)c1c(C)[nH]c(C(=O)COC(=O)CCCOc2ccccc2)c1C`, which Potency is on record?
The Potency was “inactive”.

How did the Potency turn out when `c1ccc(OCCOCCN2CCN(C(c3ccccc3)c3ccccc3)CC2)cc1` was run?
The Potency was active: 10 µM.

Which Potency does the source give for `COc1cccc(N2CC(C(=O)Nc3nnc(SCC(=O)NC4CCCC4)s3)CC2=O)c1` (stereo not drawn) here?
Its Potency is active: 31.6 µM.

How did the Potency turn out when `CCC(=O)Nc1cc(C(=O)O)ccc1Sc1ccc(Cl)cc1` was run?
The Potency was inconclusive: 89.1 µM [inhibitor, partial curve, poor fit].

`CCOC(=O)c1c(-c2ccc(C)cc2)csc1/N=C/N(C)C` was tested. Which Potency did it give?
The Potency was inconclusive: 28.2 µM [inhibitor, full curve].
